Test results reported in patent US20250179172A1 (HAINAN SIMCERE ZAIMING PHARMACEUTICAL, published 2025).

T1: murine CD5-His (Sino Biologicals, Cat. No. 50403-M08H) (murine, UniProt P13379 24-371)
T1 construct: also called murine CD5 protein; not shown: His tag
T1 sequence (looked up): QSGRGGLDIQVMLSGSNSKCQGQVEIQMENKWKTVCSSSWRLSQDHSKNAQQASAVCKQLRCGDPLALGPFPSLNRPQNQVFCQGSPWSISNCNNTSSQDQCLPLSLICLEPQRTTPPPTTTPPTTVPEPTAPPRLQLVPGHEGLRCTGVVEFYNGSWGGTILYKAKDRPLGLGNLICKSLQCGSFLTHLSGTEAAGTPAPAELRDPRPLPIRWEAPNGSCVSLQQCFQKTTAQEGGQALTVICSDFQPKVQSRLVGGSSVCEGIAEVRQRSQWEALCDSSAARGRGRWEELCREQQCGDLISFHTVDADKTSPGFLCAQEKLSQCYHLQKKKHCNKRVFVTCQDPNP

T2: human CD5 (Arg25-Pro372)-His protein (Acro, Cat. No. CD5-H52H5) (human, UniProt P06127 25-372)
T2 construct: range 25-372; also called human CD5-His; hCD5-His; not shown: His tag
T2 sequence (looked up): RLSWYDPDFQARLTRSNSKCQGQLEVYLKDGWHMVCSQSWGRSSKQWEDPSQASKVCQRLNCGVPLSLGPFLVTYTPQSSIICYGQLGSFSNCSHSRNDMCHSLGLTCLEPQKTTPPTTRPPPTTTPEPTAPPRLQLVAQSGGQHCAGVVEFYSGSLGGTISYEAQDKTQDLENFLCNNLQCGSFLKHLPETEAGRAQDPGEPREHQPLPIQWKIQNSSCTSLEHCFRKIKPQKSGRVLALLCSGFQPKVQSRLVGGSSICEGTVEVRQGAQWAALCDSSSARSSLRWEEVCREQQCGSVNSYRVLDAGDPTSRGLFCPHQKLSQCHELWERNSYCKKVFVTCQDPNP

B1: S005-NB144-31 VHH-hFc (Fc fusion)
chain: EVQVVESGGGLVQPGGSLRLSCAASGFTLDYYAIGWFRQAPGKEREGLSCISTSGGSTNYADSVKGRFTISRDNAKNTVYLQMNSLKPEDTAVYYCAASSFWDCAVVGTGSPKTGHLESVFGSWGQGTQVTVSS[human IgG1 Fc with changes not printed]
notes: VHH fused to human IgG1 Fc; no linker stated; also called S002-NB144-31
B2: S005-NB144-7 VHH-hFc (Fc fusion)
chain: EVQVVESGGGLVQAGGSLRLSCAASGSIFSINLLGWYRQAPGKERESVAILSSGGSTYYADSVKGRFTISRDNVKNMLYLQMNSLKPEDTAVYYCNAVGGIATLRDYWGQGTQVTVSS[human IgG1 Fc with changes not printed]
notes: VHH fused to human IgG1 Fc; no linker stated
B3: S005-NB144-6 VHH-hFc (Fc fusion)
chain: QVQLVESGGGLVQAGGSLRLSCAASGSIFSISVMGWYRQAPGKERETVAVISSGGSTYYADSVKGRFTISRDNAKNTLYLQMNSLKPEDTAVYYCNADFETASGSPLYESWGQGTQVTVSS[human IgG1 Fc with changes not printed]
notes: as for B2

Target: T1, murine CD5-His (Sino Biologicals, Cat. …)
Assay: ELISA on murine CD5-His, antibody 10.00 nM
Protocol: (§1) The binding activity of the H65 antibody prepared above with human CD5 protein was subjected to ELISA assay. A purchased commercial antigen (human CD5-His) was diluted with PBS to obtain a final concentration of 2 μg/mL, and then added to a 96-well ELISA plate with 100 µL/well. The plate was sealed with a plastic film and incubated at 4° C. over the night, washed twice with PBS in the next day, added with a blocking solution [PBS+2% (w/w) BSA] and blocked at room temperature for 2 h. The blocking solution was drained out, and 100 nM of the H65 antibody or negative control antibody hIgG1 after gradient dilution was added, namely, the obtained product was the antibody Anti-HEL-hIgG1 against hen egg lysozyme (purchased from Biointron, Cat. No. B117901) with 50 μl per well. After incubation for 2 h at 37° C., the plate was washed for 3 times with PBS. A secondary antibody labeled with HRP (horseradish peroxidase) (A0170, purchased from Sigma) was added. After incubation for 2 h at 37° C., the plate was washed for 5 times with PBS. A TMB substrate was added with 50 μL/well and incubated at room temperature for 30 min, then a stop solution (1.0 N HCl) was added with 50 μL/well.
(§2) To assay the species cross-activity of the VHH-hFc, ELISA plates were coated with commercial murine CD5-His (CD5 (Sino Biologicals, Cat. No. 50403-M08H)), and ELISA assays were performed according to the method described in Example 2.2. […] The negative control is hIgG1 and NB145 serves as the positive control (NB145 has been verified to be bound to murine CD5); data in the table are values of OD_{450 nm}.

Row | OD450 [OD450] | Binder
1 | 0.1 | B1
2 | 0.1 | B2
3 | 0.09 | B3

Target: T1, murine CD5-His (Sino Biologicals, Cat. …)
Assay: ELISA on murine CD5-His, antibody 0.10 nM
Protocol: as §1, §2

Row | OD450 [OD450] | Binder
4 | 0.1 | B1
5 | 0.09 | B2
6 | 0.09 | B3

Target: T1, murine CD5-His (Sino Biologicals, Cat. …)
Assay: ELISA on murine CD5-His, antibody 0.001 nM
Protocol: as §1, §2

Row | OD450 [OD450] | Binder
7 | 0.1 | B1
8 | 0.09 | B2
9 | 0.09 | B3

Target: T1, murine CD5-His (Sino Biologicals, Cat. …)
Assay: ELISA on murine CD5-His, antibody 100.00 nM
Protocol: as §1, §2

Row | OD450 [OD450] | Binder
10 | 0.11 | B1
11 | 0.12 | B2
12 | 0.11 | B3

Target: T1, murine CD5-His (Sino Biologicals, Cat. …)
Assay: ELISA on murine CD5-His, antibody 0.01 nM
Protocol: as §1, §2

Row | OD450 [OD450] | Binder
13 | 0.09 | B1
14 | 0.09 | B2
15 | 0.09 | B3

Target: T2, human CD5 (Arg25-Pro372)-His protein …
Assay: SPR (Biacore), antibody captured on Protein A chip, hCD5-His in solution, 1:1 model
Protocol: The anti-human CD5 VHH-hFc was captured using a Protein A chip (GE Healthcare; 29-127-558). The sample and running buffer were HBS-EP+ (10 mM HEPES, 150 mM NaCl, 3 mM EDTA, 0.05% surfactant P20) (GE Healthcare; BR-1006-69). The flow cell was set at 25° C. The sample block was set at 16° C. Both were pretreated with the running buffer. In each cycle, first, the test antibody was captured using the Protein A chip, and then a single concentration of CD5 antigen protein was injected. The association and dissociation processes of the antibody with the antigen protein were recorded, and finally, the chip was regenerated using Glycine pH 1.5 (GE Healthcare; BR-1003-54). The association was determined by injecting different concentrations of recombinant human CD5-His in the solution and maintaining for 240 s, wherein the flow rate was 30 μL/min, and the protein was diluted in a 1:1 dilution ratio from 200 nM (see detailed results for actual concentrations tested) to obtain 5 concentrations in total. The dissociation phase was monitored for up to 600 s and triggered by switching from the sample solution to the running buffer. The surface was regenerated by washing with 10 mM glycine solution (pH 1.5) at a flow rate of 30 μL/min for 30 s. The difference in bulk refractive index was corrected by subtracting the responses obtained from the goat anti-human Fc surface, and blank injections were also subtracted (=double referencing). To calculate the apparent KD and other kinetic parameters, the Langmuir 1:1 model was used. The association rate (Kon), dissociation rate (Koff), and binding affinity (KD) of the VHH-hFc with the hCD5-His protein are shown in Table 12, in which the antibody H65 is used as a control.

Row | Kd [nM] | koff [s⁻¹] | kon [M⁻¹ s⁻¹] | Binder
16 | 23.4 | 0.000961 | 41100 | B1
17 | 149 | 0.00068 | 4570 | B2
18 | 42.6 | 0.0287 | 674000 | B3

Target: T1, murine CD5-His (Sino Biologicals, Cat. …)
Assay: ELISA on coated murine CD5-His
Protocol: as §1, §2

Row | binding result | Binder
19 | no binding (tested: 100 nM) | B1
20 | no binding (tested: 100 nM) | B2
21 | no binding (tested: 100 nM) | B3

Target: T1, murine CD5-His (Sino Biologicals, Cat. …)
Assay: ELISA on murine CD5-His, antibody '0.000' nM as printed
Protocol: as §1, §2

Row | OD450 [OD450] | Binder
22 | 0.09 | B1
23 | 0.09 | B2
24 | 0.09 | B3
